Reference: the supplement of paper PMC4967469

Key:
[1] = compound: CN(C)CCOc1ccc(-c2nc(-c3ccncc3)c(-c3ccc4c(c3)CC/C4=N\O)[nH]2)cc1 [SB590885]; test: Viability of human cancer cell lines after 72 h of drug (GDSC screen); details: top dose 5 µM; top dose inferred
Method: (§1)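 Human cancer cell lines in 384-well plates, medium with 10% serum, drug for 72 h over a 256-fold dose range (nine 2-fold or five 4-fold steps up to the top dose). Adherent lines were fixed and stained with the nucleic acid dye Syto60, suspension lines read with resazurin; signal relative to control wells, capped at 0 and 100%. One two-parameter sigmoid per drug and line, fitted in a mixed model over all curves with the slope shared within a line.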

[2] = compound: CCN(CC)CCCCNc1ncc2cc(-c3cc(OC)cc(OC)c3)c(NC(=O)NC(C)(C)C)nc2n1 [PD-173074]; test: as above; details: top dose 2 µM; top dose inferred
Method: as §1

Cell Line | AUC [1] | IC50 [1] [µM] | AUC [2] | IC50 [2] [µM]
Calu-3 (lung adenocarcinoma, adherent) | 0.983 | > 5 | 0.982 | > 2
Caov-4 (ovary, adherent) | 0.98 | > 5 | 0.98 | > 2
Capan-2 (pancreas, adherent) | 0.985 | > 5 | 0.984 | > 2
ChaGo-K-1 (non-small cell lung carcinoma, adherent) | 0.974 | > 5 | 0.979 | > 2
D-423MG (glioma, adherent) | 0.981 | > 5 | 0.937 | > 2
D-566MG (glioma, adherent) | 0.953 | > 5 | 0.961 | > 2
DAN-G (pancreas, adherent) | 0.991 | > 5 | 0.987 | > 2
DBTRG-05MG (glioma, adherent) | 0.908 | > 5 | 0.98 | > 2
DIFI (large intestine, adherent) | 0.988 | > 5 | 0.988 | > 2
DK-MG (glioma, adherent) | 0.978 | > 5 | 0.975 | > 2
DMS-273 (small cell lung carcinoma, adherent) | 0.985 | > 5 | 0.974 | > 2
DOK (head and neck, adherent) | 0.882 | > 5 | 0.936 | > 2
DOV13 (ovary, adherent) | 0.984 | > 5 | 0.973 | > 2
DU-145 (prostate, adherent) | 0.94 | > 5 | 0.746 | 0.701
Detroit562 (head and neck, adherent) | 0.986 | > 5 | 0.988 | > 2
DoTc2-4510 (cervix, adherent) | 0.963 | > 5 | 0.956 | > 2
EBC-1 (lung squamous cell carcinoma, adherent) | 0.978 | > 5 | 0.983 | > 2
ECC10 (stomach, suspension) | 0.985 | > 5 | 0.58 | 0.21
EFM-192A (breast, adherent) | 0.949 | > 5 | 0.976 | > 2
EFO-21 (ovary, adherent) | 0.979 | > 5 | 0.98 | > 2
EFO-27 (ovary, adherent) | 0.981 | > 5 | 0.948 | > 2
EGI-1 (biliary tract, adherent) | 0.96 | > 5 | 0.963 | > 2
EMC-BAC-1 (lung adenocarcinoma, adherent) | 0.961 | > 5 | 0.965 | > 2
EN (endometrium, adherent) | 0.984 | > 5 | 0.984 | > 2
ESO26 (oesophagus, adherent) | 0.989 | > 5 | 0.989 | > 2

Cell Line | AUC [1] | IC50 [1] [µM] | AUC [2] | IC50 [2] [µM]
ESO51 (oesophagus, semi-adherent) | 0.93 | > 5 | 0.945 | > 2
ESS-1 (endometrium, adherent) | 0.99 | > 5 | 0.974 | > 2
EW-7 (Ewing sarcoma, semi-adherent) | 0.982 | > 5 | 0.954 | > 2
FADU (head and neck, adherent) | 0.963 | > 5 | 0.988 | > 2
FLO-1 (oesophagus, adherent) | 0.973 | > 5 | 0.958 | > 2
FTC-133 (thyroid, adherent) | 0.98 | > 5 | 0.959 | > 2
FU-OV-1 (ovary, adherent) | 0.981 | > 5 | 0.97 | > 2
G-292 Clone A141B1 (osteosarcoma, adherent) | 0.959 | > 5 | 0.647 | 0.407
G-361 (melanoma, adherent) | 0.889 | > 5 | 0.988 | > 2
G-401 (kidney, adherent) | 0.968 | > 5 | 0.84 | 1.58
G-402 (soft tissue, adherent) | 0.965 | > 5 | 0.897 | > 2
GAMG (glioma, adherent) | 0.895 | > 5 | 0.847 | 1.58
GMS-10 (glioma, adherent) | 0.988 | > 5 | 0.988 | > 2
H4 (glioma, adherent) | 0.948 | > 5 | 0.95 | > 2
H290 (mesothelioma, adherent) | 0.989 | > 5 | 0.977 | > 2
H513 (mesothelioma, semi-adherent) | 0.985 | > 5 | 0.985 | > 2
H2369 (mesothelioma, adherent) | 0.987 | > 5 | 0.97 | > 2
H2373 (mesothelioma, adherent) | 0.983 | > 5 | 0.978 | > 2
H2461 (mesothelioma, adherent) | 0.983 | > 5 | 0.983 | > 2
H2591 (mesothelioma, adherent) | 0.981 | > 5 | 0.761 | 0.92
H2595 (mesothelioma, adherent) | 0.933 | > 5 | 0.959 | > 2
H2731 (mesothelioma, adherent) | 0.984 | > 5 | 0.95 | > 2
H2795 (mesothelioma, adherent) | 0.921 | > 5 | 0.543 | 0.163
H2869 (mesothelioma, adherent) | 0.984 | > 5 | 0.977 | > 2
H3118 (head and neck, adherent) | 0.957 | > 5 | 0.964 | > 2

Cell Line | AUC [1] | IC50 [1] [µM] | AUC [2] | IC50 [2] [µM]
H3255 (lung adenocarcinoma, adherent) | 0.955 | > 5 | 0.976 | > 2
HARA (lung squamous cell carcinoma, adherent) | 0.956 | > 5 | 0.952 | > 2
HCC38 (breast, adherent) | 0.986 | > 5 | 0.97 | > 2
HCC202 (breast, adherent) | 0.933 | > 5 | 0.968 | > 2
HCC1143 (breast, adherent) | 0.98 | > 5 | 0.931 | > 2
HCC1395 (breast, adherent) | 0.985 | > 5 | 0.874 | > 2
HCC1419 (breast, adherent) | 0.935 | > 5 | 0.981 | > 2
HCC1428 (breast, adherent) | 0.987 | > 5 | 0.988 | > 2
HCC1569 (breast, adherent) | 0.944 | > 5 | 0.884 | > 2
HCC1806 (breast, adherent) | 0.989 | > 5 | 0.986 | > 2
HCC1937 (breast, adherent) | 0.979 | > 5 | 0.985 | > 2
HCC1954 (breast, adherent) | 0.98 | > 5 | 0.968 | > 2
HCC-15 (lung squamous cell carcinoma, adherent) | 0.934 | > 5 | 0.976 | > 2
HCC-44 (lung adenocarcinoma, adherent) | 0.973 | > 5 | 0.941 | > 2
HCC-56 (large intestine, adherent) | 0.976 | > 5 | 0.953 | > 2
HCC-78 (lung adenocarcinoma, adherent) | 0.975 | > 5 | 0.963 | > 2
HCC-366 (non-small cell lung carcinoma, adherent) | 0.988 | > 5 | 0.988 | > 2
HCT-15 (large intestine, adherent) | 0.987 | > 5 | 0.987 | > 2
HDQ-P1 (breast, adherent) | 0.982 | > 5 | 0.985 | > 2
HEC-1 (endometrium, adherent) | 0.974 | > 5 | 0.978 | > 2
HGC-27 (stomach, adherent) | 0.964 | > 5 | 0.972 | > 2
HLE (liver, adherent) | 0.971 | > 5 | 0.975 | > 2
HN (head and neck, adherent) | 0.981 | > 5 | 0.975 | > 2
HO-1-u-1 (head and neck, adherent) | 0.988 | > 5 | 0.988 | > 2
HOS (osteosarcoma, adherent) | 0.958 | > 5 | 0.953 | > 2

The IC50 comes from the fitted curve, where viability falls to half of the control; a fit beyond the top or the lowest dose is shown as a bound at that dose. AUC sums up the same curve from the lowest dose to the 256-fold higher top dose; it is 1 without any effect and falls as sensitivity rises. An inferred top dose comes from the curve model; the source does not state it.
